Here are results for 54 molecules from ChEMBL document CHEMBL4888484, “Replenishing the malaria drug discovery pipeline: Screening and hit evaluation of the MMV Hit Generation Library 1 (HGL1) against asexual blood stage Plasmodium falciparum ,using a nano luciferase reporter read-out” (2022).

Molecules are shown by their SMILES. The campaign covered roughly 150,000 compounds. About 540 (0.36%) showed an effect of 50% or more. The list shows a part of the results.

The test system of the assay is Plasmodium falciparum. The assay can be described thus: Primary screen in NF54 nanoGlo assay, in single point, at 2uM, 72h; a lower Z score goes with more inhibition. In kind it is functional, Erythrocyte. Particulars: timepoint 72 hour.
Turning to `CCO[C@H]1CN(C)C[C@@H]1NC(=O)c1cccnc1NC`, the % Inhibition – broadly, the relative decrease from the control value, in per cent – came out at 2% and the Z score is recorded as -0.28.
As for `Cc1ccc([C@H](O)c2ccccn2)cc1NC(=O)C1(C)CCC1`, the “% Inhibition” value came to 5% and the Z score is given as -1.02.
Turning to `O=C1CN(CCn2cnnc2)CCN1Cc1ccccc1F`, the “% Inhibition” value is listed as -4% and the Z score is listed as 0.62.
Taken in the same sequence, the figures for `Cc1ccc(-c2noc(-c3cccc(S(=O)(=O)Nc4ccccn4)c3)n2)cc1` were 5% and -0.67.
Consider `Cc1ccc(CN2CCc3c(cc(C(=O)N(C)Cc4ccccc4)n3C)C2)cc1`, for which the “% Inhibition” value is -4% and the Z score is 0.76.
Taken in the same sequence, the figures for `O=C(CNc1ccc(F)cn1)NCC(F)(F)F` were 5% and -0.91.
As to `CCOc1cc(C(=O)N(C)Cc2ccc(F)cc2F)ccc1OCc1cccnc1`, the “% Inhibition” value is 5% and the Z score is recorded as -0.66.
For the molecule `COc1ccc(NC(=O)CCc2ccc3ccn(C)c3c2)cc1`, the “% Inhibition” value was 5% and the Z score was -0.61.
The like results for `CCCn1cnnc1Cn1ccnc1-c1c(C)sc2ccccc12` were, in that order, 7% and -1.38.
Taken in the same sequence, the figures for `CNCCCOc1ccccc1-c1ccc2c(c1)OCO2` were 19% and -2.45.
The like results for `CCS(=O)(=O)c1ccccc1N(C)CCn1cccn1` were, in that order, -1% and 0.15.
As for `c1ccc(Oc2nc(-c3ccccc3)cc(-c3ccccc3)n2)cc1`, the “% Inhibition” value stood at 7% and the Z score is reported as -1.33.
Taken in the same sequence, the figures for `CC(C)Cn1c(-c2cccc(C(=O)NCCN3CCCC3)c2)nc2cccnc21` were 8% and -1.
Take `COc1cccc(CNCCc2c[nH]c3ccccc23)c1OCc1ccccc1F`: the “% Inhibition” value was -9% and the Z score was 1.47.
Taken in the same sequence, the figures for `CCNc1ncc(-c2nc(CCOC)nn2CC(F)(F)F)cn1` were -7% and 1.3.
Taken in the same sequence, the figures for `CCS(=O)(=O)N1C[C@@H]2CN(C(=O)CCn3nc(C)cc3C)C[C@]2(c2nc(C)no2)C1` were -13% and 1.8.
The like results for `Cc1[nH]c2ccccc2c1C(=O)N1CCC[C@@]2(CCN(C)C2)C1` were, in that order, -7% and 1.48.
`CC1CC(C)CN(S(=O)(=O)NCCOCC2CCOC2)C1` (stereo not drawn): the “% Inhibition” value is -11% and the Z score is 0.92.
For the molecule `Cc1nn(C)c(C)c1OCc1nnc(C2CCC2)n1C`, the “% Inhibition” value amounted to 39% and the Z score is -5.65.
Taken in the same sequence, the figures for `Cc1ccc(NC(=O)COC(=O)c2nccc3ccccc23)cc1` were 34% and -4.58.
The like results for `CN(CCCN1CCOCC1)c1nnc(-c2ccccc2)s1` were, in that order, -2% and 0.32.
Consider `Cc1ccc([C@H]2c3cc(OCc4nc(C(=O)NCc5ccccc5)co4)ccc3CCN2C(=O)CC(C)C)cc1`, for which the “% Inhibition” value is -3% and the Z score came to 0.51.
Consider `CCCc1cc(=O)n(-c2ccc(C(=O)NC[C@H]3CCCCN3CC)cc2)[nH]1`, for which the “% Inhibition” value is -6% and the Z score was 0.83.
Taken in the same sequence, the figures for `CCC[C@@]1(C2CCN(C(=O)c3cccnc3OC)CC2)NC(=O)N(CCc2cccs2)C1=O` were 8% and -1.05.
The like results for `Cc1nc(C#N)c(C#N)n1Cc1nc2ccccc2n1C` were, in that order, -2% and 0.22.
On to `CC[C@H]1CC[C@H](C(=O)Nc2ccc(Oc3nnn[nH]3)cc2)CC1`, for which the “% Inhibition” value is on record as -5% and the Z score was 0.46.
The like results for `O=C(NCCCc1ccccc1)[C@H]1CCCN(c2nc3ccc(Br)cc3[nH]2)C1` were, in that order, -2% and 0.42.
Taken in the same sequence, the figures for `C[C@@](O)(CNS(C)(=O)=O)Cc1ccco1` were 5% and -0.69.
`CN1CC(C(=O)N2CCCC3CCCC32)CC1=O` (stereo not drawn): the “% Inhibition” value was -7% and the Z score is listed as 0.6.
In the case of `CC(C)[C@H](NC(=O)N1CC(=O)N(C2CC2)C1)C(F)(F)F`, the “% Inhibition” value is listed as -8% and the Z score was 1.46.
The like results for `CC(C)COC[C@@H](O)CN(Cc1c(-c2ccccc2)noc1N1CCOCC1)CC1CC1` were, in that order, -7% and 1.07.
Consider `CC(C)(C)OC(=O)ON1C(=O)CCC1=O`, for which the “% Inhibition” value was -6% and the Z score turned out to be 0.66.
As for `CCC1(CO)CCN(c2ccnc(C(=O)NCc3ccccn3)c2)CC1`, the “% Inhibition” value was 17% and the Z score is -2.26.
Taken in the same sequence, the figures for `Cc1c(Cl)c(C(=O)NC[C@H]2CCC[C@@H](CO)C2)nn1C` were 2% and -0.29.
Taken in the same sequence, the figures for `CCCc1cncnc1N1C[C@@H]2CN(C3CCCC3)C[C@]2(C(=O)O)C1` were -11% and 2.18.
For `CCC1(CC)CCN(C(=O)c2nnc(COC)o2)C1`, the “% Inhibition” value stood at 4% and the Z score is listed as -0.54.
Regarding `O[C@@](C#CCN1CCCCCC1)(c1ccccc1)c1cccnc1`, the “% Inhibition” value is -12% and the Z score worked out at 1.42.
In the case of `Cc1nc(CNc2ccc(Br)cc2OC(F)F)no1`, the “% Inhibition” value is -7% and the Z score is on record as 1.
The like results for `N#COc1ccc(C2(c3ccc(OC#N)cc3)c3ccccc3-c3ccccc32)cc1` were, in that order, -17% and 2.77.
In the case of `O=C1CN(C(=O)c2cccc3c2CCOC3)Cc2ccccc2N1`, the “% Inhibition” value is -11% and the Z score is 1.51.
With `CCn1cc(CN2CCC(Oc3ccc4ccccc4c3)(C(=O)O)CC2)c(C)n1`, the “% Inhibition” value was -13% and the Z score came out at 1.87.
As to `CC(C)(C)c1ccc(C(=O)N2CC[C@H](Oc3ncc(Cl)cn3)C2)cc1`, the “% Inhibition” value came to 2% and the Z score was -0.28.
As to `COc1cccc(C2C(NC(=O)CC3CCOC3)CCN2C2CC2)c1` (stereo not drawn), the “% Inhibition” value is recorded as -9% and the Z score is 1.19.
As for `CCOc1ccc(N(CC)S(=O)(=O)N2CCC[C@H](C(=O)NCCc3c[nH]c4ccccc34)C2)cc1`, the “% Inhibition” value is on record as -3% and the Z score came out at 0.28.
Regarding `CC(NCCC(=O)NCc1ccccc1Cl)C(C)n1cccn1` (stereo not drawn), the “% Inhibition” value is given as -8% and the Z score was 1.09.
Take `CCN(CC)C[C@H](O)COc1ccc(CN(C)Cc2ccncn2)cc1OC`: the “% Inhibition” value is recorded as -7% and the Z score was found to be 0.96.
The like results for `C#CCOC[C@@H](O)CN(Cc1ccc(F)cc1F)C(C)C` were, in that order, 5% and -0.52.
The like results for `C[C@H](NC(=O)C1CC1c1ccccc1)[C@H](O)c1ccc2c(c1)OCO2` (stereo partly drawn) were, in that order, 38% and -1.25.
With `COc1ccc(CN(CCc2c[nH]c3ccccc23)C(=O)CN(CC(C)C)C(=O)Nc2c(Cl)cccc2Cl)cc1OC`, the “% Inhibition” value is -6% and the Z score came to 0.93.
Taken in the same sequence, the figures for `O=C(O)[C@H](Cc1ccccc1)NC(=O)[C@H](Cc1ccccc1)n1c(=O)[nH]c2ccccc2c1=O` were 2% and -0.43.
The like results for `O=C(CC1(O)CCOCC1)N1CCC[C@H](C2CCOCC2)C1` were, in that order, -3% and 0.56.
Taken in the same sequence, the figures for `Cc1ccncc1NC(=O)c1cccnc1O[C@H]1CCOC1` were -9% and 1.7.
In the case of `CN1CCC2(CCCN(C(=O)Cc3cccc(F)c3F)CC2)CC1`, the “% Inhibition” value is recorded as -17% and the Z score stood at 1.68.
With `CC(C)NC(=O)N1CCN(C(=O)NC(C)C)[C@@H](C(=O)N[C@@H](CC2CCCCC2)C(N)=O)C1`, the “% Inhibition” value was 8% and the Z score was -1.02.
